Paper PMC2918917 (New journal of chemistry = Nouveau journal de chimie, 2010)

Experiments:
murine eIF4E [1] = biological target: T1, murine eIF4E (Mus musculus, UniProt P63073); conditions: for ΔG° binding energy: calculated from KAS, ΔG° = −RT ln KAS
murine eIF4E [2] = biological target: T1, murine eIF4E; conditions: cited from earlier work; for KAS cap-eIF4E: equilibrium association constant, data from ref 10

For `CO[C@@H]1[C@H](O)[C@@H](COP(=O)(O)OP(=O)([O-])OP(=O)(O)OP(=O)(O)OC[C@H]2O[C@@H](n3cnc4c(=O)[nH]c(N)nc43)[C@H](O)[C@@H]2O)O[C@H]1n1c[n+](C)c2c(O)nc(N)nc21` [m2^7,2'-OGppppG], the “ΔG° binding energy” value (murine eIF4E [1]) is given as -10.73 ± 0.04 kcal/M and the “KAS cap-eIF4E” value (murine eIF4E [2]) is given as 99.8 ± 6.0 ^e µM^−1.
With `COC1C(O)[C@@H](COP(=O)(O)OP(=O)([S-])OP(=O)(O)OP(=O)(O)OC[C@H]2O[C@@H](n3cnc4c(=O)[nH]c(N)nc43)C(O)C2O)O[C@H]1n1c[n+](C)c2c(O)nc(N)nc21` (stereo partly shown) [compound 3, P1-(7,2'-O-dimethylguanosin-5'-yl) P4-guanosin-5'-yl (2-thiotetraphosphate)] the “ΔG° binding energy” value (murine eIF4E [1]) was -11.33 ± 0.02 kcal/M.
With “P1-(7,2'-O-dimethylguanosin-5'-y l ) P4-guanosin-5'-yl (3-thiotetraphosphate) [2a]” the “ΔG° binding energy” value (murine eIF4E [1]; listed as m2^7.2'-OGpppSpG (D1)) was -10.95 ± 0.01 kcal/M.
In the case of “P1-(7,2'-O-dimethylguanosin-5'-y l ) P4-guanosin-5'-yl (1-thiotetraphosphate) [4b]”, the “ΔG° binding energy” value (murine eIF4E [1]; listed as m2^7.2'-OGpSpppG (D2)) is reported as -10.87 ± 0.02 kcal/M.
For `COC1C(COP(=O)([O-])OP(=O)(O)OP(=O)(O)OP(=O)(O)OP(=O)(O)OCC2OC(n3cnc4c(=O)[nH]c(N)nc43)C(O)C2O)OC(n2c[n+](C)c3c(=O)[nH]c(N)nc32)C1O` (stereo not shown) [m2^7,3'-OGp5G], the “KAS cap-eIF4E” value (murine eIF4E [2]) is given as 299 ± 20 µM⁻¹.
For `CO[C@H]1[C@@H](O)[C@H]([n+]2cn(C)c3c(=O)[nH]c(N)nc32)O[C@@H]1COP(=O)([O-])OP(=O)(O)OP(=O)(O)OC[C@H]1O[C@@H](n2cnc3c(=O)[nH]c(N)nc32)[C@H](O)[C@@H]1O` [m2^7,3'-OGpppG], the “ΔG° binding energy” value (murine eIF4E [1]) is given as -9.40 ± 0.02 kcal/M, the “binding affinity to eIF4E (KAS)” value (murine eIF4E [2]) is given as 10.2 ± 0.3 µM⁻¹ and the “KAS cap-eIF4E” value (murine eIF4E [2]) is given as 10.2 ± 0.3 ^e µM^−1.
With `Nc1nc2c(ncn2[C@@H]2O[C@H](COP(=O)(O)OP(=O)(O)OP(=O)(O)OC[C@H]3O[C@@H](n4cnc5c(N)ncnc54)[C@H](O)[C@@H]3O)[C@@H](O)[C@H]2O)c(=O)[nH]1` [ApppG] the “ΔG° binding energy” value (murine eIF4E [1]) was > -6.20 kcal/M.
For “P1-(7,2'-O-dimethylguanosin-5'-y l ) P4-guanosin-5'-yl (1-thiotetraphosphate) [compound 4]”, the “ΔG° binding energy” value (murine eIF4E [1]; listed as m2^7.2'-OGpSpppG (mix)) was -11.07 ± 0.02 kcal/M.
For “P1-(7,2'-O-dimethylguanosin-5'-y l ) P4-guanosin-5'-yl (3-thiotetraphosphate) [2b]”, the “ΔG° binding energy” value (murine eIF4E [1]; listed as m2^7.2'-OGpppSpG (D2)) was -10.95 ± 0.01 kcal/M.
In the case of m2^7,3'-OGppCH2pG, the “binding affinity to eIF4E (KAS)” value (murine eIF4E [2]) is listed as 4.41 ± 0.2 µM⁻¹.
For `COC1C(O)C(COP(O)(=S)OP(=O)(O)OP(=O)(O)OCC2OC(n3cnc4c(=O)[nH]c(N)nc43)C(O)C2O)OC1n1c[n+](C)c2c(=O)[nH]c(N)nc21` (stereo not shown) [m2^7,2'-OGpSppG (D1)], the “ΔΔG° difference versus its (D2) counterpart” value (murine eIF4E [2]; triphosphate series) is given as 0.59 kcal/mol and the “ΔΔG° difference versus m2^7,2'-OGpppG” value (murine eIF4E [2]; triphosphate series) is given as 0.69 kcal/mol.
With `Cn1c[n+]([C@@H]2O[C@H](COP(=O)(O)OP(=O)([O-])OP(=O)(O)OC[C@H]3O[C@@H](n4cnc5c(=O)[nH]c(N)nc54)[C@H](O)[C@@H]3O)[C@@H](O)[C@H]2O)c2nc(N)[nH]c(=O)c21` [m^7GpppG] the “ΔG° binding energy” value (murine eIF4E [1]) was -9.35 ± 0.03 kcal/M.
With “P1-(7,2'-O-dimethylguanosin-5'-y l ) P4-guanosin-5'-yl (1-thiotetraphosphate) [4a]” the “ΔG° binding energy” value (murine eIF4E [1]; listed as m2^7.2'-OGpSpppG (D1)) was -11.28 ± 0.01 kcal/M, the “ΔG° binding energy difference (lower than that of 4b)” value (murine eIF4E [1]; versus 4b) was 0.40 kcal/mol and the “ΔG° binding energy difference (lower than that of m2^7,2'-OGppppG)” value (murine eIF4E [1]; versus m2^7,2'-OGppppG) was 0.54 kcal/mol.
For “P1-(7,2'-O-dimethylguanosin-5'-y l ) P4-guanosin-5'-yl (3-thiotetraphosphate) [compound 2]”, the “ΔG° binding energy” value (murine eIF4E [1]; listed as m2^7.2'-OGpppSpG (mix)) was -10.99 ± 0.01 kcal/M.
In the case of “P1-(7,2'-O-dimethylguanosin-5'-y l ) P4-guanosin-5'-yl (4-thiotetraphosphate) [1a]”, the “ΔG° binding energy” value (murine eIF4E [1]; listed as m2^7.2'-OGppppSG (D1)) is reported as -10.83 ± 0.03 kcal/M.
For “P1-(7,2'-O-dimethylguanosin-5'-y l ) P4-guanosin-5'-yl (4-thiotetraphosphate) [1b]”, the “ΔG° binding energy” value (murine eIF4E [1]; listed as m2^7.2'-OGppppSG (D2)) was -10.78 ± 0.03 kcal/M.

Like-named read-outs stand apart in the source and are kept apart here.
